Laboratory results as given in PubChem BioAssay AID488969 (Vanderbilt High Throughput Screening Facility, 2010).
The full ranking holds about 110,000 compounds; the median of “z-score” is about -0.1, and the highest 2% start at about 2. The list shows a part of the results. The source made the active and inactive calls.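 How the source made its calls: active means z-score in the third read window above 3 or below -3; inactive means the rest.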

target: Metabotropic glutamate receptor 8 (Rattus norvegicus) (UniProt P70579); assay: mGluR8 Gi/Go-coupled signaling modulation – cell-based, rat, thallium flux, HTS, primary screen (AID 488969); details: HEK293 rat mGluR8, GIRK (G protein-gated inwardly rectifying potassium channel) thallium flux, FluoZin2; at 10 µM; stronger effect = higher value; submaximal glutamate (EC20) added with thallium
Sequence of UniProt P70579 (P70579 whole entry, looked up): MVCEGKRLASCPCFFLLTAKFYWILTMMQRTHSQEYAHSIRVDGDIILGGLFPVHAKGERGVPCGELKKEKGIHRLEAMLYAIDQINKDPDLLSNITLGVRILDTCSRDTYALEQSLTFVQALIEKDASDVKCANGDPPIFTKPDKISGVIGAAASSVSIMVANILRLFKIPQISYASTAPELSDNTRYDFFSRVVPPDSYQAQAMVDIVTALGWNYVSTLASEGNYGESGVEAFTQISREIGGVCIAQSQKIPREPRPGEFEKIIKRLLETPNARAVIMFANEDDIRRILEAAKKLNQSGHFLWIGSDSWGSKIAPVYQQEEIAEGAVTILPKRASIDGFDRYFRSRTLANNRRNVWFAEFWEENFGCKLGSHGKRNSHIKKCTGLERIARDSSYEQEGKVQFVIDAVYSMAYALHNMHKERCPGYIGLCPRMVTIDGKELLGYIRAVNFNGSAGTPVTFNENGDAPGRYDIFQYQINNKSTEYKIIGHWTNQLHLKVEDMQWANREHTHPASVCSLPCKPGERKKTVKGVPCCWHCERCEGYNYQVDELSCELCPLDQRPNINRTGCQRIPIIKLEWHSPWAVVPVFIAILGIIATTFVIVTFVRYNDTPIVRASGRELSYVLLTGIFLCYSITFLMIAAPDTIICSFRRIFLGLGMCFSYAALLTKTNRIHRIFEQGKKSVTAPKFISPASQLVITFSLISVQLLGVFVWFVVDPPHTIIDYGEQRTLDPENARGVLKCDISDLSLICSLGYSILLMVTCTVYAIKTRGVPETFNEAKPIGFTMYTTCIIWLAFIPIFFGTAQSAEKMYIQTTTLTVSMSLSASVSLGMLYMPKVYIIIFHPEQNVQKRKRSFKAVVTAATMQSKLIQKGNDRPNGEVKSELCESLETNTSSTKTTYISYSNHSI

Compound	z-score
Cn1c(=O)[nH]c(=O)c2c1nc(Sc1ccccc1)n2CCc1ccccc1	-0.134
COc1ccc(/C=C2\SC(N3CCc4ccccc4C3)=NC2=O)cc1	-0.34
COc1ccccc1C(=O)Nc1ccc2c3c(cccc13)CC2	-0.287
C/C(Nc1ccc(C)cc1)=C(/C#N)C(N)=O	0.0432
CC(CCc1ccco1)NC(=O)Cn1nc(Cc2ccncc2)c2ccccc2c1=O (stereo unspecified)	0.41
Cc1ccc(-c2nnn(CCC(=O)Nc3ccc4c(c3)OCO4)n2)cc1	-0.244
COc1ccc(S(=O)(=O)N2CCN(Cc3ccc(Cl)cc3)CC2)cc1	-0.871
CCCn1c(SCC(=O)c2cc(OC)ccc2OC)nc2c1c(=O)n(C)c(=O)n2C	0.355
COC(=O)c1ccccc1S(=O)(=O)N(CCCN1CCOCC1)Cc1cccs1	-0.193
CCOC(=O)c1cnc2c(C)cccc2c1NCc1ccco1	-0.68
Cc1cc(Cl)ccc1OCC(=O)Nc1ccccc1N1CCOCC1	2.81
COc1ccc(OC)c(C2=NOC(C(=O)N3CCN(c4ccccc4)CC3)C2)c1 (stereo unspecified)	-0.631
CCOC(=O)CSc1nc2sc(C)c(C)c2c(=O)n1N	-0.265
CC1=CN2CC(O)CN=C2C=C1 (stereo unspecified)	-0.0845
O=C(O)C1CCC(CNCc2cccnc2)CC1 (stereo unspecified)	-0.332
CCOC(=O)N=S(=O)(Oc1ccc([N+](=O)[O-])cc1)c1ccc(Cl)cc1 (stereo unspecified)	-1.84
Cc1ccccc1C(=O)NC(=S)Nc1sc2c(c1C#N)CCC(C)C2 (stereo unspecified)	1.82
O=C(Nc1ccc2c(c1)OCO2)c1nn(-c2ccccc2)c(=O)c2ccccc12	-0.0301
COc1ccccc1N1CCN(C(=O)/C=C/c2cccs2)CC1	0.139
CCn1c(SCC(=O)c2ccccc2)nnc1-c1cc2cc(Br)ccc2o1	-0.172
CCCc1c(O)c2ccccc2n(-c2ccccc2)c1=O	-0.342
CCCCNC(=O)CSc1nc2n[nH]c(C)c2c(=N)n1-c1cccc(Cl)c1C	0.0108
COc1ccc2oc(=O)c(C(=O)N3CCN(c4ccccc4)CC3)cc2c1	-0.433
CCOc1cc(C2NC(=O)NC(O)(C(F)(F)F)C2C(=O)c2ccc(OC)cc2)ccc1O (stereo unspecified)	1.51

Compound	z-score
Cc1cc(OCC(=O)Nc2ccc(F)c(F)c2)nc(C(C)C)n1	0.156
O=c1oc(-c2ccccc2F)nc2c1cnn2-c1ccccc1	0.0417
Cc1cccc(NC(=O)c2c(O)c3cccc4c3n(c2=O)CC4)c1	0.0242
Cc1ccc(C(=O)N/N=c2\sc3ccccc3n2C)cc1	0.37
COc1c(F)c(F)c(C(=O)O)c(Nc2ccc(C)cc2)c1F	-0.0424
Cc1cc(C)nc(NC(=O)CCC2CCCC2)c1	-0.0409
CC12Cc3ccc4ccccc4c3C=C1C[N+](C)(C)C2 (stereo unspecified)	-0.171
CC1CCN(c2nc(CN3CCCCC3)nc3scc(-c4ccccc4)c23)CC1	-0.0127
N#Cc1nc(-c2ccc(F)cc2)oc1NCc1ccccc1	-0.026
O=C1CC(Sc2nnnn2C2CCCCC2)C(=O)N1c1ccccc1 (stereo unspecified)	-0.00221
CCOC(=O)CC1C(=O)NCCN1S(=O)(=O)c1ccccc1Cl (stereo unspecified)	0.0105
CN(C)S(=O)(=O)c1cc(NC(=O)CN2CCN(c3ccccc3)CC2)ccc1Cl	-0.192
O=C(C1CCCN(S(=O)(=O)c2ccccc2)C1)N1CCN(c2ncccn2)CC1 (stereo unspecified)	-0.0124
Cc1nc(N(C)C)ncc1C(=O)O	0.166
Fc1ccccc1CCNc1nnnn1-c1ccccc1	0.648
CC(C)NC(=S)N/N=C/c1sc(N2CCCCC2)nc1-c1cccs1	0.593
CCc1cc(Br)ccc1NC(=O)C1CCCO1 (stereo unspecified)	-0.336
O=C(COc1ccc(Cl)cc1)Nc1cnn(Cc2c(Cl)cccc2Cl)c1	-0.00257
Cc1cccc(NC(=O)CSc2nccn2C)c1	0.299
O=C1CCCC2=C1C(c1cccs1)Nc1ccc3ncccc3c12 (stereo unspecified)	0.0208
CN(C)CCC(O)(c1ccccc1)c1ccccc1	-0.0232
CN(CCCNC(=O)C1CCC(=O)N1Cc1ccccc1Cl)c1ccccc1 (stereo unspecified)	-0.262
Cc1ccc(NC(=O)CC2SC(=NCC3CCCO3)NC2=O)cc1Cl (stereo unspecified)	-0.0211
O=S(=O)(c1ccccc1)N1CCSC1c1ccco1 (stereo unspecified)	-0.0642

Compound	z-score
Cn1nc(C(=O)Nc2cccnc2)c2ccccc2c1=O	-0.305
C/C(=N\Nc1nccnc1Cl)c1ccc([N+](=O)[O-])cc1	-0.378
CC1(C)CC(=O)C2=C(C1)N(c1ccc(F)cc1)C(=O)NC2(C(F)(F)F)C(F)(F)F	-0.103
COc1ccc(N2CCN(C(=O)CCN3C(=O)c4ccccc4S3(=O)=O)CC2)cc1	-0.374
O=C(NCc1ccc2c(c1)OCO2)C1CCC(CNc2c(N3CCCCC3)c(=O)c2=O)CC1 (stereo unspecified)	1.42
CCOC(=O)N1CCN(CCC(=O)Nc2cc(OC)cc(OC)c2)CC1	-0.19
COc1cc(S(=O)(=O)N(Cc2cccs2)C2CC2)ccc1-n1cnnn1	-0.419
CC1=C(C(N)=O)C(c2ccccn2)n2nc(-c3ccccc3Cl)nc2N1 (stereo unspecified)	-0.00632
Cc1ccc(NC(=O)c2ccccc2OCC(=O)c2ccccc2)cc1	-0.0627
C1CCC(NC2=NCCC2)CC1	0.29
S=C1NC(c2ccccc2)=NCN1c1ccc(Br)cc1	0.919
O=C(C1CC(c2ccccc2O)=NO1)N1CCc2ccccc2C1 (stereo unspecified)	-0.961
COc1ccccc1C(=O)n1nc(-c2ccco2)nc1N	0.0838
CCCSc1nnc(CNC(=O)C23CC4CC(CC(C4)C2)C3)n1Cc1ccccc1	-0.148
Oc1ccc2ccccc2c1N=Nc1ccccn1	2.19
Cc1nc2ccccc2nc(=O)c1NNc1ccccc1	-0.17
C=CC(=O)Nc1ccc(Br)cc1	0.0392
C=CCN1C(=O)/C(=C\c2ccc(Cl)cc2)N=C1SCC(=O)NC1CCCCC1	-0.393
COc1cccc(/C=N/NC(=O)CNC(=O)C2COc3ccccc3O2)c1O (stereo unspecified)	-0.314
Cc1ccsc1C1NC(=O)c2ccccc2N1 (stereo unspecified)	-0.0765
O=C(ONc1ccc(N=NC(=O)c2ccccc2O)cc1)c1ccccc1	0.531
COc1ccc(NC(=O)Cn2cnc3c(cnn3-c3ccc(C)c(C)c3)c2=O)c(OC)c1	-0.0912
c1ccc2c(N3CCCCC3)ncnc2c1	-0.0556
CCOC(=O)Cn1ccc(O)c(Cc2ccc(Cl)cc2Cl)c1=O	0.286

Compound	z-score
CCOc1ccc(-c2nc(N)ncc2-c2ccccc2)c(O)c1	0.261
Cc1cccc(OCCNc2nc3c(c(=O)n(C)c(=O)n3C)n2C)c1	0.153
COc1ccc(OC)c(NC(=O)CSc2ccc3ccccc3c2)c1	-0.708
Cc1cc(Cl)c(S(=O)(=O)Nc2ccc3c(c2)OCO3)cc1OCC(N)=O	0.115
C=CCNc1nc(NCCN2CCOCC2)nc(N2CCOCC2)n1	0.497
CCCn1c(=O)c2ccccc2n2c(SCc3cc(=O)oc4ccc5ccccc5c34)nnc12	-0.654
O=C(NC(=S)Nc1ccccc1N1CCOCC1)c1ccco1	active: 9.71
CCOc1ccc(-c2cc(C)n3nc(C(N)=O)cc3n2)cc1	active: 5.02
O=C1OCC/C1=C\c1ccccc1O	0.146
CC1CCN(c2c(NCC3CCC(C(=O)N4CCCCC4)CC3)c(=O)c2=O)CC1 (stereo unspecified)	-0.344
Cc1ccc(S(=O)(=O)N2CCSC2C(=O)O)cc1 (stereo unspecified)	-0.174
O=C(Nc1cccc2nsnc12)c1ccc(F)cc1	0.651
CCOc1ccc(C2C=C(c3ccccc3)Nc3ncnn32)cc1 (stereo unspecified)	-1.27
Cc1ccc(F)cc1NC(=O)C12CC3CC(C1)CC(n1cnc([N+](=O)[O-])n1)(C3)C2	0.29
COc1ccc(NC(=O)c2cn(-c3ccccc3)nc2-c2cc3ccccc3o2)cc1	-0.453
CCCCOC(=O)Nc1ccc(C(N)=O)cc1	0.507
Cc1ccccc1NC(=O)CSC1=NCCN1	-0.181
Brc1ccc(-c2cnnc(N3CCCC3)n2)cc1	0.0522
COc1cccc(CNC(=O)Cn2nc(-c3ccc(Cl)cc3)ccc2=O)c1	-0.52
COc1ccc(-c2cc(C)nc(SCC(=O)c3cccc([N+](=O)[O-])c3)n2)cc1	-0.325
CSCCC(C(=O)OCC(=O)c1ccc(C)c(C)c1)N1C(=O)c2cc(Cl)c(Cl)cc2C1=O (stereo unspecified)	0.00574
CCc1c(C(=O)NC2CCCCC2)[nH]c(C)c1C(C)=O	-0.364
CC1=C(C#N)CCC(=O)N1Cc1c(C)cc(C)cc1C	-0.0955
Cc1cc(N)ccc1S(C)(=O)=O	0.106

Compound	z-score
Cc1ccc(N2C(=O)C3C4CC(=O)C(c5ccccc54)C3C2=O)cc1C (stereo unspecified)	0.0205
CCC(C)NC(=O)/C=C/c1cccs1 (stereo unspecified)	0.151
O=C(O)CCC(=O)Nc1ccccc1C(=O)NCc1ccccc1	-0.155
Cc1cc(C)n2c3c(c(C#N)c2n1)CC(C)(C)OC3	0.277
O=C1c2ccccc2NC(c2ccccc2Br)N1CCCN1CCOCC1 (stereo unspecified)	-0.503
CCn1c(NCc2c[nH]c3ccccc23)nc2ccccc21	-0.139
CCOC(=O)C1CCN(Cc2nc3ccccc3c(=O)n2-c2ccc(OCC)cc2)CC1	-0.482
CC(=O)Nc1sc2c(c1C(N)=O)CCC2	0.293
CCOc1ccc(C(=O)Nc2ccc(-c3cc4ccccc4oc3=O)c(C)c2)cc1[N+](=O)[O-]	0.0272
COc1ccc(C(CC(=O)NCc2ccccc2)Sc2n[nH]c(-c3ccc(Cl)cc3)n2)cc1 (stereo unspecified)	-0.139
COc1ccc(Cl)cc1Nc1nc(NCCO)nc(N2CCCC2)n1	-0.194
CCOc1ccc(S(=O)(=O)N2c3ccccc3CC2C)cc1 (stereo unspecified)	-0.694
CCN(CC)C(=O)CSc1nnc([C@@H](NC(=O)OC(C)(C)C)C(C)C)o1	0.525
CCN(CC)c1ccc(C(=O)NC(=S)N2CCN(Cc3ccc4c(c3)OCO4)CC2)cc1	active: 10
Cc1ccc(-c2nnc(SCC(=O)Nc3ccccc3F)o2)cc1	-0.425
CC(C)(C)C(=O)COC(=O)c1ccc(O)cc1	-0.915
CCCCCCC1CCC(c2nc(-c3ccncc3)no2)CC1 (stereo unspecified)	-0.112
COC(=O)c1cn(C)c2ccc(S(=O)(=O)N3CCCCC3)cc2c1=O	-0.17
CCOC(=O)Cc1csc(NC(=S)NC(=O)CC(C)C)n1	1.27
CC(=O)c1ccc(OCCn2cnc3ccccc32)cc1	1.01
